Measured values published in PubChem BioAssay AID493208 (National Center for Advancing Translational Sciences (NCATS), 2011).
Screen size: about 44,000 compounds; about 340 (0.77%) were called active. About 5% were inconclusive and are not listed. The call rests on the fitted dose curve; in most records, active means well fitted inhibition curve with a large enough effect; inconclusive means small, poorly fitted or top-dose-only effect; inactive means flat fitted curve, though single readings scatter. Some of the results follow.

assay: Acumen qHTS Assay for Inhibitors of the mTORC1 Signaling Pathway in MEF (Tsc2-/-, p53-/-) Cells: Sytravon; conditions: phospho-rpS6 immunofluorescence/PI, 24 h; series mostly up to 38.3 µM; activity change, negative = inhibition: at the top concentration; further: nearly all actives have a fitted effect of over 50% in size;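 on activity change, negative = inhibition: plate controls were DMSO for no effect and rapamycin for full effect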
How it was run: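 Tsc2-/-, p53-/- mouse embryonic fibroblasts (empty-vector line) exposed to compound 24 hrs at 37 C, fixed, immunostained for phospho-rpS6 and counterstained with propidium iodide. Acumen laser scanning gives % positive cells from Alexa 488/PI ratio, thresholded using 7.5 nM rapamycin; PI count gives viability.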
Potency means the concentration at half of the fitted maximal effect.

Compound | activity change, negative = inhibition | Potency
Cc1cc(C)cc(NC(=O)c2c(C)oc3nc(C)nc(N4CCCC4)c23)c1 | inactive: -4.33% | –
CC(C)CCn1c(=O)c2cccnc2n(CC(=O)Nc2ccccc2F)c1=O | inactive: -8.94% | –
Cn1c2ccccc2c2cnn(CC(=O)Nc3ccccc3F)c(=O)c21 | inactive: -8.94% | –
CCOc1ccc(Nc2nn(-c3ccc(OC(F)(F)F)cc3)nc2C(C)=O)cc1 | inactive: -0.187% | –
CCc1ccc(OCC(=O)Nc2ncn[nH]2)c(Br)c1 | inactive: -3.52% | –
COc1cccc(Cn2c(-c3nonc3NC(C)=O)nc3ccccc32)c1 | inactive: -3.17% | –
COc1cccc(-c2noc(-c3cc(C(C)C)[nH]n3)n2)c1OC | inactive: 0.226% | –
COc1ccccc1CNC(=O)CCNS(=O)(=O)c1ccc2c(c1)oc(=O)n2C | inactive: 1.83% | –
O=C(COc1ccc(F)cc1)NCc1ccc2c(c1)CCN2C(=O)c1ccccc1 | inactive: -18.2% | –
CNC(=O)c1ccc2c(c1)N(Cc1ccccc1Cl)C(=O)c1ccccc1S2 | inactive: 0.0694% | –
Cc1cccc(NC(=O)c2sc3nc(-c4cc5ccc(O)cc5oc4=O)[nH]c(=O)c3c2C)c1 | inactive: 5.66% | –
O=C(Cn1c(=O)nc(-c2ccccc2F)c2cc(Cl)ccc21)NCCCc1ccccc1 | inactive: -18.5% | –
COc1ccc(N2CCN(Cc3nnc(-c4ccc5c(c4)OCO5)o3)CC2)cc1 | inactive: -0.913% | –
Cc1ccc2c(c1)c1c3n2CCN(C(=O)c2cccc(C(F)(F)F)c2)C3CCC1 (centres undefined) | inactive: -10.2% | –
CCc1cccc(C)c1Nc1c(-c2ccsc2)nc2ncccn12 | inactive: 9.44% | –
Cc1ccc(C)c(Cn2c3ccccc3c3cnn(CC(=O)NCCc4ccccc4)c(=O)c32)c1 | inactive: -10.6% | –
Clc1ccc(-c2noc(-c3cccnc3NCc3ccco3)n2)cc1 | inactive: 0.876% | –
Cc1ccc(-n2nc(C)c3nc(CCC(=O)Nc4cccc(F)c4)c(=O)n(C)c32)cc1 | inactive: 0% | –
Cc1cccc(CNC(=O)CCCN2C(=O)CCn3nc(-c4cccn4C)cc32)c1 | inactive: -4.83% | –
CCOc1c(Cl)cc(C(=O)N(Cc2ccc(N(C)C)cc2)Cc2ccco2)cc1Cl | inactive: 0.0842% | –
COc1ccc(CNC(=O)C2CCCN(c3nnc(C)c4c(C)n(-c5ccc(C)cc5)nc34)C2)cc1 (centres undefined) | inactive: -14.4% | –
CCC(Sc1nc2ncccc2o1)C(=O)Nc1ccc(OC)c(OC)c1 (centres undefined) | inactive: 0% | –
COc1ccc(C2CC(=O)c3cc(-c4nc(-c5cccc(Cl)c5)cs4)c(=O)[nH]c3C2)cc1 (centres undefined) | inactive: 4.65% | –
Cc1ccc2c(=O)cc(C(=O)Nc3sc4c(c3C(=O)NCC3CCCO3)CCCC4)oc2c1 (centres undefined) | inactive: 0.491% | –
CCOc1ccccc1N(C)C(=O)c1c2c(nc3ccccc13)C(=O)N(C1CCCCC1)C2 | inactive: -1.02% | –

Compound | activity change, negative = inhibition | Potency
O=S(=O)(c1ccc(Cl)cc1Cl)n1ccnc1 | inactive: -1.32% | –
CSc1oc(-c2cccs2)nc1S(=O)(=O)c1ccc(Br)cc1 | inactive: 2.88% | –
Cc1ccc2oc(-c3cc(NC(=O)c4oc5ccccc5c4C)ccc3Cl)nc2c1 | inactive: -5.15% | –
Cc1ccc2oc(=O)n(Cc3ccccc3Cl)c2c1 | inactive: 0.0857% | –
CCc1ccc(OCC(=O)Nc2cc(-c3nc4cc(C)ccc4o3)ccc2C)cc1 | inactive: 0.616% | –
CN(Cc1ccc(F)cc1)S(=O)(=O)c1nnc(NC(=O)c2ccccc2)s1 | inactive: -3.22% | –
CCCNC(=O)C1CCC(CNS(=O)(=O)c2ccc3c(c2)CC(C)N3C(C)=O)CC1 (centres undefined) | inactive: -14.1% | –
Cc1ccc(NC(=O)c2oc3ccccc3c2NC(=O)C23CC4CC(CC(C4)C2)C3)cc1 | inactive: -7.53% | –
CCOc1ccc(Nc2ncnc3scc(-c4ccc(OC)cc4)c23)cc1 | inactive: 0% | –
Cc1ccc(C(=O)NCc2ccccc2)cc1NC(=O)c1nsc2ccccc12 | inactive: 9.15% | –
CCOC(=O)c1c(C)[nH]c(C)c1S(=O)(=O)N1CCC(C(=O)Nc2ccc(C)c(N(C)C)c2)CC1 | inactive: 5.78% | –
CC(C)(C)OC(=O)N1CCC(c2c(C(=O)N3CCN(Cc4ccccc4)CC3)cnn2-c2ccc(Cl)cc2)CC1 | inactive: 3.28% | –
Cn1cc(C(=O)NCCc2ccccc2)c(=O)c2cc(S(=O)(=O)N3CCCCC3)ccc21 | inactive: 5.11% | –
CCc1ccc(N2C(=O)CN(S(=O)(=O)CC)CC2(C)C(=O)NC2CCCCC2)cc1 (centres undefined) | inactive: 0.438% | –
Cc1cc(-c2ccc(C)c(S(=O)(=O)NCc3cccs3)c2)on1 | inactive: -15.5% | –
O=C(CNC(=O)c1ccccc1)OCc1cc(=O)n2nc(C3CC3)sc2n1 | inactive: 3.37% | –
Cc1ccc(Nc2c(-c3ccc(C)o3)nc3cccc(C)n23)cc1 | inactive: -5.3% | –
O=c1c2oc3ccccc3c2n(Cc2ccc(Cl)cc2)c(=O)n1Cc1ccccc1 | inactive: -0.619% | –
CCC1CCCCN1C(=O)CCS(=O)(=O)c1cc2c(cc1C)NC(=O)CO2 (centres undefined) | inactive: 8.04% | –
Cc1cc(C)cc(-n2c(SCC(=O)N3CCCCCC3)nc3c([nH]c4ccccc43)c2=O)c1 | inactive: 0.107% | –
CCS(=O)(=O)c1ncc(Cl)c(C(=O)NCc2ccccc2)n1 | – | active: 2610 nM
O=C(Nc1cc(F)ccc1F)c1ccc(CN2CC(=O)N3CCCCC3C2=O)cc1 (centres undefined) | inactive: 7.95% | –
COc1ccc(-c2cc(=O)oc3c4c(ccc23)OCN(Cc2ccccc2)C4)cc1 | inactive: 1.76% | –
CC(=O)Nc1c(C)nn(-c2ccccc2)c1N1CCC(C(=O)NCc2ccc(F)cc2)CC1 | inactive: 0.628% | –
